# According to a collection of fitness landscapes (doi:10.1016/j.celrep.2020.107928):
# In all, about 81,000 sequences were measured (“one-hybrid fitness for binding NBS DNA”: median about -0.1, highest 2% from about 0.36 on). The list shows a part of the results.
# B1: Caulobacter ParB omega fusion; a variant is named by its letters at X, in order, B8GW30 (parent)
# chain: MESVVVGEPGMSEGRRGLGRGLSALLGEVDAAPAQAPGEQLGGSREAPIEILQRNPDQPRRTFREEDLEDLSNSIREKGVLQPILVRPSPDTAGEYQIVAGERAWRAAQRAGLKTVPIMVRELDDLAVLEIGIIENVQRADLNVLEEALSYKVLMEKFERTQENIAQTIGKSXSHVANXMRLLXLPDEVQSYLVSGELTAXHARAIAAAADPVALAKQIIEGGLSVRETEALARKAPNLSAGKSKGGRPPRVKDTDTQALESDLSSVLGLDVSIDHRGSTGTLTITYATLEQLDDLCNRLTRGI
# Variants of: B1
# Assay: one-hybrid fitness for binding NBS DNA (the Noc-binding site; scaled: cognate 1, non-cognate 0); higher = stronger binding
# Settings: with NBS DNA site
# How it was run: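 The reporter was HIS3, with the binding site 19 bp from the promoter, in E. coli USO used for bacterial one-hybrid selection of Caulobacter ParB libraries with four specificity codons randomised. Growth was on M9 lacking histidine, with 0.1 mM IPTG and 5 mM 3-AT, for 48 hours at 37°C. Illumina sequencing covered plasmids before and after selection; three replicate libraries were pooled and variants with under 10 reads dropped. A fitness score is the log change in variant-to-wild-type read ratio, rescaled to the cognate and non-cognate references.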
row,Variant,one-hybrid fitness for binding NBS DNA
1,TSHN,≤ 0.2
2,HRMG,≤ 0.2
3,ANWT,≤ 0.2
4,WNLR,≤ 0.2
5,LCYA,≤ 0.2
6,KCCS,≤ 0.2
7,ESSG,≤ 0.2
8,MKIV,≤ 0.2
9,RWMW,≤ 0.2
10,IVKQ,≤ 0.2
11,TSNS,≤ 0.2
12,FTDC,≤ 0.2
13,KAHG,≤ 0.2
14,PYCL,≤ 0.2
15,RWHD,≤ 0.2
16,KNMS,≤ 0.2
17,QQYQ,≤ 0.2
18,PHAI,≤ 0.2
19,PAIR,≤ 0.2
20,HANN,≤ 0.2
21,GFPL,≤ 0.2
22,HWPS,≤ 0.2
23,AIET,≤ 0.2
24,CCWS,≤ 0.2
25,KVIS,≤ 0.2
26,KYWG,≤ 0.2

row,Variant,one-hybrid fitness for binding NBS DNA
1,RDDC,≤ 0.2
2,NNKA,≤ 0.2
3,GRYD,≤ 0.2
4,CIDT,≤ 0.2
5,VFSY,≤ 0.2
6,LTLT,≤ 0.2
7,TAHS,≤ 0.2
8,NCEV,≤ 0.2
9,CLNS,≤ 0.2
10,MQNR,≤ 0.2
11,YKHC,≤ 0.2
12,SAVV,≤ 0.2
13,RPFR,≤ 0.2
14,HYTI,≤ 0.2
15,HFFL,≤ 0.2
16,QMHH,0.221
17,WKSR,≤ 0.2
18,AKLD,≤ 0.2
19,TMYP,≤ 0.2
20,LERG,≤ 0.2
21,EQHS,≤ 0.2
22,NTLE,≤ 0.2
23,THMT,≤ 0.2
24,QNDW,≤ 0.2
25,CTDG,≤ 0.2
26,SVSI,≤ 0.2

row,Variant,one-hybrid fitness for binding NBS DNA
1,HWAY,≤ 0.2
2,KRSN,≤ 0.2
3,LCYN,≤ 0.2
4,TLSE,≤ 0.2
5,RKWF,≤ 0.2
6,HAVS,≤ 0.2
7,QRKG,0.485
8,HRTG,≤ 0.2
9,VGPA,≤ 0.2
10,HYRD,≤ 0.2
11,ASQR,≤ 0.2
12,NITT,≤ 0.2
13,YVMI,≤ 0.2
14,EYGG,≤ 0.2
15,AISC,≤ 0.2
16,PKRT,≤ 0.2
17,YFYT,≤ 0.2
18,SERL,≤ 0.2
19,WSSC,≤ 0.2
20,QFRK,0.227
21,VYPA,≤ 0.2
22,KDNG,≤ 0.2
23,RTME,≤ 0.2
24,IYMG,≤ 0.2
25,YHFS,≤ 0.2
